Binding signal (log2 fold change) data for 66 sequences are collected here from PMC5892938.

The other results are listed elsewhere or left out. The source does not settle which construct or isoform was used.

The target in this experiment is GST-SBP-ILF3 (Homo sapiens) (UniProt Q12906). Put plainly: targeted RNA Bind-n-Seq. The conditions noted are these: RBNS binding buffer: 25 mM Tris pH 7.5, 150 mM KCl, 3 mM MgCl2, 0.1% Tween, 0.5 mg/mL BSA, 1 mM DTT; 27 nM protein, 750 pM RNA pool; temperature not stated; high values mean tight binding; sequences stand for … in GGGUAAAAGCGAGGUGAA…CGGGACAAGUAUUAUGGG
For the sequence “GUGUGUGGUGUUGGCUUCUAACACCACGCG [gtspaired]”, the binding signal (log2 fold change) was -0.476.

With “UUUUUUUUUUGAGACGGGGUCUGUCUCCUG [tttttgagapaired]”, the binding signal (log2 fold change) was determined as 1.07.

For “GUGUGUGGUGUUGGAUCCUAACACCGCAUA [gtspaired]”, the binding signal (log2 fold change) is -0.361.

In the case of “UUUUUUUUUUGAGAGGGUGCCCCUCUCCAG [tttttgagapaired]”, the binding signal (log2 fold change) turned out to be 0.585.

For the sequence “UUUUUUUUUUGAGAGGGCUCCCUUCUCCGG [tttttgagapaired]”, the binding signal (log2 fold change) stood at 0.408.

For the sequence “GUGUGGUGUGUUGGCUUCUAACACACUACG [gtspaired]”, the binding signal (log2 fold change) is -0.81.

As for “UUUUUUUUUUGAGACGGUAACCGUCUCCAG [tttttgagapaired]”, the binding signal (log2 fold change) amounted to 0.235.

With “UUUUUUUUUUGAGACUGCAGCAGUUUCCAG [tttttgagapaired]”, the binding signal (log2 fold change) turned out to be 0.746.

As to “UUUUUUUUUUGAGACCGGCACGGUUUCCUA [tttttgagapaired]”, the binding signal (log2 fold change) is 0.364.

As for “UUUUUUUUUUGAGAGUGAAGCACUCUCCUA [tttttgagapaired]”, the binding signal (log2 fold change) is 0.103.

As to “UUUUUUUUUUGAGAUGGUGUCCAUCUCCUA [tttttgagapaired]”, the binding signal (log2 fold change) was 0.388.

Turning to “GUUGGUGGUGUUGGCACCUAACACCGCCGA [gtspaired]”, the binding signal (log2 fold change) was -0.547.

For the sequence “GGUUGUUGUGUUGGAGCCUAACACAGCAAC [gtspaired]”, the binding signal (log2 fold change) was -0.256.

As to “GUGUGGUGUGUUGGUGCCUAACACAUCGCG [gtspaired]”, the binding signal (log2 fold change) was -0.582.

Turning to “UUUUUUUUUUGAGACCGACUCGGUCUCCAG [tttttgagapaired]”, the binding signal (log2 fold change) is 0.388.

With “UUUUUUUUUUGAGACCGUUUCGGUCUCCUA [tttttgagapaired]”, the binding signal (log2 fold change) amounted to 0.238.

For the sequence “UUUUUUUUUUGAGAGGGACGCCCUCUCCGG [tttttgagapaired]”, the binding signal (log2 fold change) is 0.666.

For “GUGUGUUGUGUUGGUCCCUAACACAACGCA [gtspaired]”, the binding signal (log2 fold change) is -0.286.

Take “UUUUUUUUUUGAGAUGGAGUCCGUCUUCUA [tttttgagapaired]”: the binding signal (log2 fold change) came out at 0.34.

For “GGUGUUGGUGUUGGCUUCUAACACCGAUAC [gtspaired]”, the binding signal (log2 fold change) is -0.825.

As to “GUGUGUGGUGUUGGUAUCUAACACCACGCG [gtspaired]”, the binding signal (log2 fold change) is -0.484.

Take “UUUUUUUUUUGAGAUGGAGCCCAUCUCCUG [tttttgagapaired]”: the binding signal (log2 fold change) is 0.564.

For the sequence “UUUUUUUUUUGAGAUGGCAGCCAUCUCCGG [tttttgagapaired]”, the binding signal (log2 fold change) turned out to be 0.524.

“GGUGGUUGUGUUGGUAUCUAACACAAUCGC [gtspaired]”: the binding signal (log2 fold change) is -0.377.

On to “UUUUUUUUUUGAGAGGGGCUCCCUCUUCUA [tttttgagapaired]”, for which the binding signal (log2 fold change) is 0.748.

For “UUUUUUUUUUGAGACUGUUCCAGUCUCCUA [tttttgagapaired]”, the binding signal (log2 fold change) amounted to 0.0435.

In the case of “UUUUUUUUUUGAGAUGGACCCCAUCUCCUG [tttttgagapaired]”, the binding signal (log2 fold change) was 0.525.

With “UUUUUUUUUUGAGAGCGUAACGCUCUUCUG [tttttgagapaired]”, the binding signal (log2 fold change) came to 0.164.

For the sequence “GUGGUUGGUGUUGGAUUCUAACACCGACUA [gtspaired]”, the binding signal (log2 fold change) is -0.372.

In the case of “GGUGGUGGUGUUGGCCUCUAACACCGCUAC [gtspaired]”, the binding signal (log2 fold change) was -0.72.

“GUGUGUGGUGUUGGACCCUAACACCACAUA [gtspaired]”: the binding signal (log2 fold change) was -0.495.

Take “GUGUGUUGUGUUGGCCUCUAACACAACACG [gtspaired]”: the binding signal (log2 fold change) was -0.467.

Regarding “GUGUGGUGUGUUGGCAUCUAACACAUCGCA [gtspaired]”, the binding signal (log2 fold change) is -0.713.

For “UUUUUUUUUUGAGAUGGUGACCAUCUUCUG [tttttgagapaired]”, the binding signal (log2 fold change) stood at 0.343.

In the case of “GUUGGUGGUGUUGGCGCCUAACACCAUCAA [gtspaired]”, the binding signal (log2 fold change) was -0.176.

Turning to “UUUUUUUUUUGAGAACGUAACGUUCUCCUA [tttttgagapaired]”, the binding signal (log2 fold change) was determined as 0.0581.

Consider “UUUUUUUUUUGAGACGGGAGCUGUCUUCUA [tttttgagapaired]”, for which the binding signal (log2 fold change) was 0.653.

Take “GUGUGUUGUGUUGGAUCCUAACACAGCACA [gtspaired]”: the binding signal (log2 fold change) is -0.54.

Turning to “GUGUGUGGUGUUGGAUCCUAACACCGCACG [gtspaired]”, the binding signal (log2 fold change) was -0.484.

Consider “UUUUUUUUUUGAGAGCGGUGCGCUCUCCUG [tttttgagapaired]”, for which the binding signal (log2 fold change) came to 0.672.

Consider “UUUUUUUUUUGAGACUGUGGCAGUCUCCUA [tttttgagapaired]”, for which the binding signal (log2 fold change) was 0.668.

With “GUGUGGUGUGUUGGCUCCUAACACACCGCG [gtspaired]”, the binding signal (log2 fold change) is -0.703.

Turning to “UUUUUUUUUUGAGAUGGCAACUAUCUCCGG [tttttgagapaired]”, the binding signal (log2 fold change) is 0.344.

Regarding “UUCCUCUCUCCUCCGUGGGAGGGGGGAGGA [ctspaired]”, the binding signal (log2 fold change) was -0.239.

As for “GUGUGUUGUGUUGGAGUCUAACACAACGCG [gtspaired]”, the binding signal (log2 fold change) is -0.691.

Take “GGUUGUGGUGUUGGAGUCUAACACCGCAGC [gtspaired]”: the binding signal (log2 fold change) is -0.518.

Turning to “UUUUUUUUUUGAGACCGAACCGGUCUCCGG [tttttgagapaired]”, the binding signal (log2 fold change) was 0.44.

Take “UUUUUUUUUUGAGACGGACGCCGUCUCCGG [tttttgagapaired]”: the binding signal (log2 fold change) was 0.597.

With “UUUUUUUUUUGAGACGGAAUCUGUCUCCUA [tttttgagapaired]”, the binding signal (log2 fold change) turned out to be 0.47.

On to “UUUUUUUUUUGAGACUGAGUCAGUCUCCUG [tttttgagapaired]”, for which the binding signal (log2 fold change) worked out at 0.643.

For the sequence “UUUUUUUUUUGAGAGUGAUGCACUCUCCGG [tttttgagapaired]”, the binding signal (log2 fold change) turned out to be 0.168.

On to “UUUUUUUUUUGAGACCGGGACGGUUUCCAG [tttttgagapaired]”, for which the binding signal (log2 fold change) came out at 0.598.

With “UUUUUUUUUUGAGACGGCUGCCGUCUUCUG [tttttgagapaired]”, the binding signal (log2 fold change) turned out to be 0.898.

Take “UUUUUUUUUUGAGACUGUAGCAGUCUCCGG [tttttgagapaired]”: the binding signal (log2 fold change) stood at 0.625.

With “GUGUGUUGUGUUGGCUCCUAACACAGCACA [gtspaired]”, the binding signal (log2 fold change) is -0.483.

Consider “UUUUUUUUUUGAGACGGAGCCCGUCUCCGG [tttttgagapaired]”, for which the binding signal (log2 fold change) was 0.548.

For “GGUGUGUGUGUUGGACCCUAACACAUAUAC [gtspaired]”, the binding signal (log2 fold change) was -0.333.

On to “UUUUUUUUUUGAGAGCGAGCCGCUCUCCUA [tttttgagapaired]”, for which the binding signal (log2 fold change) stood at 0.278.

In the case of “GUGUGGUGUGUUGGCAUCUAACACAUCACA [gtspaired]”, the binding signal (log2 fold change) was -0.636.

“UUUUUUUUUUGAGAGCGUAACGCUCUCCUG [tttttgagapaired]”: the binding signal (log2 fold change) was determined as 0.0155.

Regarding “UUUUUUUUUUGAGACUGCGUCAGUCUCCUA [tttttgagapaired]”, the binding signal (log2 fold change) turned out to be 0.537.

For “UUUUUUUUUUGAGAGGGGUGCCCUCUCCUA [tttttgagapaired]”, the binding signal (log2 fold change) was determined as 0.675.

Turning to “UUUUUUUUUUGAGACGGGCGCCGUCUUCUA [tttttgagapaired]”, the binding signal (log2 fold change) stood at 0.734.

Turning to “UUUUUUUUUUGAGAGUGAUCCACUCUCCUG [tttttgagapaired]”, the binding signal (log2 fold change) was -0.0865.

As to “UUUUUUUUUUGAGAUGGAUACCAUCUCCUG [tttttgagapaired]”, the binding signal (log2 fold change) stood at 0.33.

For the sequence “GUGUGUUGUGUUGGCUUCUAACACAGCGCG [gtspaired]”, the binding signal (log2 fold change) was -0.735.
